The source of these data is publication PMC1282572.

The term stoichiometry N denotes a count of units in the complex or per binding partner.

The target of the test is T1, Avidin (chicken) (chicken), P02701.
T1 chain: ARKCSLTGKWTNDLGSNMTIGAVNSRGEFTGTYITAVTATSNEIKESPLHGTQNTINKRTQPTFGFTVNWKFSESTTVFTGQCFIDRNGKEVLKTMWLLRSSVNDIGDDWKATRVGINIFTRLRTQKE
Description: SEC; FPLC gel filtration, Superdex HR 10/30 column, 50 mM NaCO3 (pH 11.0), 150 mM NaCl; calibrated with IgG, BSA and ovalbumin; oligomeric state (tetramer). The note with it: remark: other sources report otherwise. In general terms: SEC sorts molecules by how far they enter the pores of the column.

B1: Avidin (chicken), P02701 25-152 (natural protein)
chain: T1 chain
B1 yielded a stoichiometry N of 4.
